# Among all 350,000 compounds or so, about 31,000 (8.9%) were called active. The inconclusive results got no clear call from the source; some entries with a clear call stand among them for comparison. Calls come from the whole dose curve; as a rule, active = well fitted inhibition curve with a large enough effect; inconclusive = small, poorly fitted or top-dose-only effect; inactive = no such curve, though single readings can be large or run the other way. Potencies of inconclusive entries are doubtful fits and often do not repeat.
# Target: Histone-lysine N-methyltransferase EHMT2 (Homo sapiens) (UniProt Q96KQ7)
# Experiment: qHTS Assay for Inhibitors of Histone Lysine Methyltransferase G9a; note: nearly all actives have a fitted effect of over 75% in size
# Conditions: G9a H3K9 monomethylation, AlphaScreen, 2 h; activity, negative = inhibition: at 59 µM (top of the series) unless noted
# Outline: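 Quantitative HTS format: methyltransferase activity on a biotin-tagged H3K9 peptide is measured by AlphaScreen, using a rabbit anti-monomethyl-H3K9 antibody with streptavidin donor and anti-IgG acceptor beads. Final levels are 20 nM enzyme, 500 nM peptide, 20 uM SAM; 2 h RT.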
# % is set by controls: 0 for no effect and ±100 for the full control effect; potency is the fitted concentration of half-maximal effect; tags give direction and shape of the fitted curve.
# UniProt Q96KQ7, sequence (Q96KQ7 whole entry, looked up): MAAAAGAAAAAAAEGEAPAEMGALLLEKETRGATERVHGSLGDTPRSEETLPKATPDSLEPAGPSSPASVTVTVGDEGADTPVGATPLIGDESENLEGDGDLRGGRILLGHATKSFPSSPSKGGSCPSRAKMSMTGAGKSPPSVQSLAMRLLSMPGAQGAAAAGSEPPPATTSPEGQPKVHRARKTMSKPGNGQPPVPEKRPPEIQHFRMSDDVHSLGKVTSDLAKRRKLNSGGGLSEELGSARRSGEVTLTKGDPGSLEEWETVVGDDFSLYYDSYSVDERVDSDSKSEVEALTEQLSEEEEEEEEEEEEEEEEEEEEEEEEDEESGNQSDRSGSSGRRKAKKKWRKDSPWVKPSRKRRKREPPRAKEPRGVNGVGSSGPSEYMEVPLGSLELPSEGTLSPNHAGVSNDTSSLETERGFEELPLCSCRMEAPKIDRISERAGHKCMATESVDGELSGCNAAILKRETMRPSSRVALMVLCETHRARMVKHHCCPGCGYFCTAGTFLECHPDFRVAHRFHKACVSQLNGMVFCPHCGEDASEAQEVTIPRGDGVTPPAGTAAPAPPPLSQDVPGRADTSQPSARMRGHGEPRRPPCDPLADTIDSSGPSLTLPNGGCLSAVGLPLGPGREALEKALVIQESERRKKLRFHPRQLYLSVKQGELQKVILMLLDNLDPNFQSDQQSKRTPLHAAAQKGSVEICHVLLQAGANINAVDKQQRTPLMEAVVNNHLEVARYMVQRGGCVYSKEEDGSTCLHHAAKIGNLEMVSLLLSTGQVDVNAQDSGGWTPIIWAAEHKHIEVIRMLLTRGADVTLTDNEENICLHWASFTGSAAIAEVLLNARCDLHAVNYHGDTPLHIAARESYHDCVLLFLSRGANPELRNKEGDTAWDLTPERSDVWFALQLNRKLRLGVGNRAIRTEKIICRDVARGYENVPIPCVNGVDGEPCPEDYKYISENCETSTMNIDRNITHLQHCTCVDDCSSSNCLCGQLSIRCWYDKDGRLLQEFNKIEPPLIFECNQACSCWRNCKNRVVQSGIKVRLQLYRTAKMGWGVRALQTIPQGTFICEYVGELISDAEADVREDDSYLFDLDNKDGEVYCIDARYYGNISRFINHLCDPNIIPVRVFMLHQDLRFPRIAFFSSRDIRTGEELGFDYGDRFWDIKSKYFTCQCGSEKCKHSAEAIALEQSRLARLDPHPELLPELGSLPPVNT
SMILES,Potency,"activity, negative = inhibition"
c1ccc(-c2nc(N3CCCC3)nc3ccccc23)cc1,"inconclusive: 50.1 µM [inhibitor, partial curve]",–
COc1cc2c(cc1OC)C(C(C(=O)N(CCc1ccc(OC)c(OC)c1OC)CCc1ccc(OC)c(OC)c1OC)c1ccccc1)=NCC2 (stereo unspecified),"inconclusive: 22.4 µM [inhibitor, partial curve]",–
CCCOc1cccc(C2/C(=C(/O)c3ccc(F)cc3)C(=O)C(=O)N2CCN(C)C)c1 (stereo unspecified),"inconclusive: 89.1 µM [inhibitor, single point]",–
Cc1c(NC(=O)C(C)c2ccc(CC(C)C)cc2)c(=O)n(-c2ccccc2)n1C (stereo unspecified),"inconclusive: 89.1 µM [inhibitor, partial curve, poor fit]",–
C=C[C@@](C)(O)CC[C@@H]1[C@@]2(C)CCCC(C)(C)[C@@H]2CC[C@@]1(C)O,–,inconclusive: -52.4% [inhibitor]
CCS(=O)(=O)N1CCN(Cc2ccc([N+](=O)[O-])cc2)CC1,"inconclusive: 7.08 µM [inhibitor, full curve, poor fit]",–
CC1CCc2sc3nc(N4CCN(CCO)CC4)n4ncnc4c3c2C1 (stereo unspecified),"inconclusive: 56.2 µM [inhibitor, partial curve, poor fit]",–
Cc1nn(CCC(=O)NNC(=S)Nc2cccc(Cl)c2)c(C)c1[N+](=O)[O-],active: 8.91 µM,–
CN(C)CCNC(=O)c1ccc(CS(=O)(=O)c2c(Cl)cccc2Cl)o1,"inconclusive: 89.1 µM [inhibitor, partial curve, poor fit]",–
O=S(=O)(NCCc1ccncc1)c1ccccc1,–,inactive: 24.9%
CC(C)CC(=O)Nc1ccc(-c2nc3ccccc3c(=O)o2)cc1,"inconclusive: 0.631 µM [inhibitor, partial curve, poor fit]",–
Cc1cccn2c(=O)c(C=O)c(N3CCN(c4ccc(F)cc4)CC3)nc12,–,inactive: -21.3% [at 102 µM]
COc1ccc(NC2c3ccccc3C(=O)N2c2ccccn2)cc1Cl (stereo unspecified),"inconclusive: 35.5 µM [inhibitor, single point]",–
CC1Cc2cc(/C(O)=C3/C(=O)C(=O)N(CC4CCCO4)C3c3ccco3)ccc2O1 (stereo unspecified),"inconclusive: 0.794 µM [inhibitor, partial curve, poor fit]",–
CCOC(=O)c1sc(NC(=O)CSc2nnc(Cc3ccccc3)o2)c(C#N)c1C,"inconclusive: 1.41 µM [inhibitor, full curve, poor fit]",–
CCc1ccc(N2CC(C(=O)Nc3ccc(S(=O)(=O)Nc4nccs4)cc3)CC2=O)cc1 (stereo unspecified),"inconclusive: 56.2 µM [inhibitor, single point]",–
CCC(c1nnnn1C1CCCCC1)N1CCN(C(=O)c2ccco2)CC1 (stereo unspecified),"inconclusive: 79.4 µM [inhibitor, single point]",–
Cc1ccc([N+](=O)[O-])cc1N/C=C/C(=O)c1ccco1,"inconclusive: 2.51 µM [inhibitor, partial curve, poor fit]",–
CC(c1ccc(F)cc1)n1c(-c2cccs2)n[nH]c1=S (stereo unspecified),active: 5.01 µM,–
COc1ccc(NS(=O)(=O)NC(=O)c2c(C)n(C)c3ccccc23)cc1,active: 39.8 µM,–
O=C(Nc1sc2c(c1C(=O)O)CCC2)c1ccccc1F,"inconclusive: 89.1 µM [inhibitor, single point]",–
O=C(O)c1sc2ncccc2c1OCc1ccccc1,–,inactive: -49.8% [at 102 µM]
CCn1c(C)c(C)c2cc(C(=O)NC3CCCCCC3)ccc21,–,inactive: -5.98% [at 102 µM]
Nc1c(C=C2C=CC(=O)C=C2)c(=O)nc2sc(CC(=O)N3CCCCC3)nn12,"inconclusive: 89.1 µM [inhibitor, single point]",–

SMILES,Potency,"activity, negative = inhibition"
O=C(c1ccco1)N1CCN(CC2CC3C=CC2C3)CC1 (stereo unspecified),"inconclusive: 3.98 µM [inhibitor, single point]",–
Cc1cccc(C2CC(c3ccccc3)Nc3nc(N)nn32)c1 (stereo unspecified),"inconclusive: 0.794 µM [inhibitor, partial curve, poor fit]",–
CC(CNC(=O)c1cc2ccccn2n1)c1ccccc1 (stereo unspecified),–,inactive: 10%
CCCCCC(=O)Nc1cc(S(=O)(=O)N2CCOCC2)ccc1N1CCCC1,active: 28.2 µM,–
Cc1cc(CNC(=O)c2ccc3c(c2)OCO3)c2ccccc2n1,active: 35.5 µM,–
O=C(NC(=S)NNC(=O)c1ccccc1O)c1ccccc1,active: 31.6 µM,–
O=C(Nc1ccc(-n2cnnn2)cc1)c1cccc(S(=O)(=O)N2CCCC2)c1,–,inactive: -3.06%
N#CC(C#N)=Cc1cc2ccccc2nc1N1CCCCC1,"inconclusive: 35.5 µM [inhibitor, single point]",–
Cc1ccc(NC(=O)CN2C(=S)NC(C)(C)CC2C)cc1Cl (stereo unspecified),active: 15.8 µM,–
CN(C)CCCN(C(=O)c1sc2ccccc2c1Cl)c1nc2c(F)cccc2s1,active: 25.1 µM,–
N#Cc1nc(COc2ccccc2F)oc1NCc1ccc(F)cc1,active: 35.5 µM,–
CN(C)CCOC(=O)c1ccc2[nH]c3c(c2c1)CSCC3,active: 28.2 µM,–
COc1cccc(COC(=O)C2CCN(S(=O)(=O)c3cccs3)CC2)c1OC,"inconclusive: 89.1 µM [inhibitor, single point]",–
CCC(C)NC(=O)c1ccc(Cl)c(S(=O)(=O)Nc2ccccc2N2CCOCC2)c1 (stereo unspecified),–,inactive: -2.65% [at 0.501 µM]
O=C(c1cnc(N2CCCCC2)c2ccccc12)N1CCN(c2ccc(F)cc2)CC1,–,inactive: -6.71%
Fc1ccc(Nc2nc(-c3ccc(F)cc3)c3c(n2)-c2ccccc2OC3)cc1,"inconclusive: 35.5 µM [inhibitor, single point]",–
CN1CCN(CCNC(=O)c2ccc3nc(-c4ccc(F)cc4)c(-c4ccc(F)cc4)nc3c2)CC1,"inconclusive: 50.1 µM [inhibitor, partial curve, poor fit]",–
O=Cc1c(NCCN2CCCC2)c2ccccc2[nH]c1=O,active: 10 µM,–
Cc1ccc(C(=O)OCC(=O)Nc2sc3c(c2C#N)CCCC3)cc1NC(=O)c1ccco1,active: 22.4 µM,–
NS(=O)(=O)c1ccc(NC(=O)CSc2nnc(COc3ccccc3Cl)n2C2CC2)cc1,"inconclusive: 25.1 µM [inhibitor, single point]",–
CSc1nc(C)cc(Nc2cccc(C(=O)O)c2)n1,"inconclusive: 35.5 µM [inhibitor, single point]",–
COc1ccccc1NC(=O)c1ccc2nc(N3C(=O)CCC3=O)sc2c1,"inconclusive: 25.1 µM [inhibitor, single point]",–
O=C(NC(=S)NNC(=O)c1ccccc1O)c1cccc([N+](=O)[O-])c1,–,inactive: 52.3% [at 2.33 µM]
COC(=O)c1cc(S(=O)(=O)N(C)C2CCCCC2)c[nH]1,"inconclusive: 17.8 µM [inhibitor, single point]",–

SMILES,Potency,"activity, negative = inhibition"
Cc1nn(CC(=O)NCCc2ccc(Cl)cc2Cl)c(C)c1[N+](=O)[O-],"inconclusive: 89.1 µM [inhibitor, partial curve, poor fit]",–
CCOc1ccccc1N1CCN(S(=O)(=O)c2ccc3c4c(cccc24)C(=O)N3)CC1,"inconclusive: 3.55 µM [inhibitor, partial curve, poor fit]",–
CCN(CC)Cc1ccc(OC)c(Cl)c1,–,inactive: 1.59% [at 102 µM]
CC(CCc1ccco1)NC(=O)c1cc2c(-c3ccccc3F)nn(C)c2s1 (stereo unspecified),active: 89.1 µM,–
CN(C(=O)CCc1nc2ccccc2c(=O)[nH]1)C1CCS(=O)(=O)C1 (stereo unspecified),"inconclusive: 7.94 µM [inhibitor, single point]",–
Cc1ccc(-c2nc3scc(CCNS(=O)(=O)c4c(C)noc4C)n3n2)cc1,–,inactive: 22.3%
N#CC1=C(N)NC(SCc2ccccc2)=C(C#N)C12CCCCC2,"inconclusive: 3.55 µM [inhibitor, single point]",–
CCCCOC(=O)C1CCCC(C)N1 (stereo unspecified),active: 28.2 µM,–
C[C@@H]1O[C@@H](OC2C(O)C(OCCc3ccc(O)c(O)c3)OC(CO)C2OC(=O)/C=C/c2ccc(O)c(O)c2)[C@H](O)[C@H](O)[C@H]1O (stereo partly specified),"inconclusive: 3.16 µM [inhibitor, partial curve, poor fit]",–
Cc1ccn2c(-c3csc(NCc4ccccc4)n3)c(C)nc2c1,active: 5.01 µM,–
Cc1cccc(OCC(=O)N/N=C/c2cccn2C)c1,"inconclusive: 50.1 µM [inhibitor, partial curve]",–
COc1cc(/C=C2/C(=O)N(c3ccc([N+](=O)[O-])cc3)N=C2N2CCOCC2)ccc1O,–,inactive: -41.8% [at 102 µM]
CCN(CC(=O)Nc1ccccc1C(F)(F)F)C(=O)C1CC(=O)N(Cc2ccccc2)C1 (stereo unspecified),–,inactive: -5.33% [at 102 µM]
Cc1ccc(-c2csc(NC(=O)CSc3nnc4c(n3)[nH]c3ccccc34)n2)cc1,–,inactive: -6% [at 102 µM]
COc1ccc(C2=NN(c3ccccc3)C(=O)/C2=C\c2ccc(O)c(OC)c2)cc1,active: 15.8 µM,–
Cc1ccc(Nc2nc(-c3ccc(F)cc3)cs2)nc1,–,inactive: -2.24%
Cc1ccsc1/C=N/N=C1\C(=O)Nc2ccccc21,"inconclusive: 17.8 µM [inhibitor, single point]",–
COc1cccc(CNC(=O)c2ccc3c(c2)sc2nc(-c4ccccc4)cn23)c1OC,–,inactive: -7.15%
Cc1cc(-c2ccc(C)c(S(=O)(=O)NCCCN3CCN(c4ccccc4)CC3)c2)on1,active: 70.8 µM,–
Cc1cc(OCC(=O)NCCCn2ccnc2)c2c(C)c(C)c(=O)oc2c1,–,inactive: 9.47% [at 102 µM]
N#Cc1c(NC(=O)c2cccnc2)sc2c1CCC2,"inconclusive: 1.41 µM [inhibitor, full curve, poor fit]",–
O=[N+]([O-])c1cccc(/C=N/N2CCN(Cc3ccccc3)CC2)c1,"inconclusive: 28.2 µM [inhibitor, single point]",–
COc1ccc2c(CC(=O)Nc3ncc(C)s3)coc2c1,"inconclusive: 89.1 µM [inhibitor, partial curve, poor fit]",–
